{"source": "PubChem BioAssay AID686979", "about": "(National Center for Advancing Translational Sciences (NCATS), 2013)", "note": "The campaign covered roughly 420,000 compounds. About 50,000 (12%) were called active. The inconclusive results got no clear call from the source; some entries with a clear call stand among them for comparison. Calls follow the shape of the dose curve; as a rule, active = well fitted inhibition curve with a large enough effect; inconclusive = small, poorly fitted or top-dose-only effect; inactive = flat fitted curve, though single readings scatter. Potencies of inconclusive entries are left out as doubtful fits. % is scaled to controls: 0 for no effect and ±100 for the full control effect; potency is read from the fitted curve at half-maximal effect; tags tell the direction and shape of the fitted curve.", "data": [{"assay": "qHTS for Inhibitors of human tyrosyl-DNA phosphodiesterase 1 (TDP1): qHTS in cells in presence of CPT; also: nearly all actives have a fitted effect of over 55% in size", "settings": "chicken DT40 Tdp1-/-;hTDP1 cells + 20 nM CPT, ATP luminescence, 48 h; activity change, negative = growth inhibition: at 46.2 µM (top of the series) unless noted", "in_short": "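Chicken DT40 Tdp1-/- cells complemented with human TDP1, 400 cells/well, exposed to compounds plus 20 nM camptothecin for at least 48 h at 37 C; viability read as ATP content by CellTiter-Glo luminescence.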", "values": [{"smiles": "O=C(NC1CCCCC1)C(c1cccs1)N(Cc1cccs1)C(=O)c1cccs1", "note": "(stereo not drawn)", "Potency": "active: 18.4 µM"}, {"smiles": "O=C(Cc1cccs1)N1CCN=C1SCc1ccc(F)cc1", "activity change, negative = growth inhibition": "inactive: 7.49%"}, {"smiles": "S=C(NN=Cc1ccc2c(c1)OCO2)NN=Cc1ccc2c(c1)OCO2", "Potency": "active: 23.1 µM"}, {"smiles": "O=C(NCc1ccccc1)c1cc(C2CCCCN2S(=O)(=O)Cc2ccccc2)on1", "note": "(stereo not drawn)", "Potency": "inconclusive [inhibitor, single point]"}, {"smiles": "CCCn1nc(C(=O)Nc2cccc(C(=O)OC)c2)c2ccccc2c1=O", "Potency": "inconclusive [inhibitor, single point]"}, {"smiles": "COC(=O)/C(=C\\c1ccc(O)cc1)c1nc2ccccc2[nH]1", "Potency": "inconclusive [inhibitor, single point]"}, {"smiles": "O=C(NCCc1ccccc1)c1ccc2c(c1)N(Cc1c(F)cccc1Cl)C(=O)CS2", "Potency": "active: 14.6 µM"}, {"smiles": "Cc1nonc1C1CCCN1C(=O)c1cc(COc2cccc(C(F)(F)F)c2)on1", "note": "(stereo not drawn)", "Potency": "inconclusive [inhibitor, single point]"}, {"smiles": "CCOc1ccc(-n2c(SCC(=O)NCC3CCCO3)nc3c([nH]c4ccccc43)c2=O)cc1", "note": "(stereo not drawn)", "activity change, negative = growth inhibition": "inactive: -17%"}, {"smiles": "COc1ccc(-n2c(SCC(=O)Nc3ccc([N+](=O)[O-])cc3OC)nc3ccccc32)cc1", "activity change, negative = growth inhibition": "inactive: -22.8%"}, {"smiles": "O=C(CCC(=O)N1CCN(Cc2ccc(F)cc2)CC1)Nc1nnc(C2CCCCC2)s1", "Potency": "inconclusive [inhibitor, partial curve]"}, {"smiles": "COc1cc2c(cc1OC)C(COc1ccc3c(C)cc(=O)oc3c1)N(C(=O)c1cccc(C)c1)CC2", "note": "(stereo not drawn)", "Potency": "inconclusive [inhibitor, single point]"}, {"smiles": "CCc1ccccc1N(CC(=O)NCc1ccc(OC)cc1)C(=O)CCC(=O)Nc1ccccn1", "Potency": "inconclusive [inhibitor, partial curve, poor fit]"}, {"smiles": "COCCCn1c(=O)c2sccc2n2c(CCCC(=O)NCc3ccc(OC)cc3)nnc12", "activity change, negative = growth inhibition": "inactive: 5.17%"}, {"smiles": "O=C(NCC1CCCO1)c1ccc(C(=O)NCC2CCCO2)cc1", "note": "(stereo not drawn)", "activity change, negative = growth inhibition": "inactive: 3.85%"}, {"smiles": "CCCC(=O)N1CCCC1(C)C(=O)Nc1ccc(OC(F)F)cc1", "note": "(stereo not drawn)", "activity change, negative = growth inhibition": "inactive: 8.96%"}, {"smiles": "CCc1nc2ccc(C(=O)Nc3ccc(NC(C)=O)cc3)cn2c1N(C)CCC(C)C", "Potency": "inconclusive [inhibitor, single point]"}, {"smiles": "O=C(Nc1cc(NC(=O)c2ccccc2F)ccc1Cl)c1ccccc1", "Potency": "inconclusive [inhibitor, single point]"}, {"smiles": "Cc1cc(C)c2oc(-c3cccc(NC(=O)COc4ccc(Cl)cc4C)c3C)nc2c1", "Potency": "active: 5.01 µM"}, {"smiles": "CC1CCCCC12NC(=O)N(CC(=O)NC(=O)NCc1ccco1)C2=O", "note": "(stereo not drawn)", "activity change, negative = growth inhibition": "inactive: -11.1%"}, {"smiles": "CCOC(=O)C1CCN(S(=O)(=O)c2ccc3c(c2)CC(C)N3C(=O)C2CCC2)CC1", "note": "(stereo not drawn)", "activity change, negative = growth inhibition": "inactive: -25.2%"}, {"smiles": "CCc1ccc(NC(=O)CSc2nccn2-c2ccc(OC)cc2)cc1", "Potency": "inconclusive [inhibitor, single point]"}, {"smiles": "COc1ccccc1N1CCN(c2ccc([N+](=O)[O-])cc2Cl)CC1", "Potency": "active: 14.6 µM"}, {"smiles": "Cc1cc(C)n(-c2nc(NC(C)C)nc(NC(C)(C)C)n2)n1", "Potency": "active: 1.26 µM"}, {"smiles": "c1coc(-c2nc3ccccc3nc2-c2ccco2)c1", "Potency": "active: 18.4 µM"}, {"smiles": "CCOCCCNc1ncnc2c1nc1n2CCCC1", "activity change, negative = growth inhibition": "inactive: -7.86%"}, {"smiles": "N/C(Cc1ccc([N+](=O)[O-])cc1)=N\\OC(=O)c1ccc([N+](=O)[O-])cc1", "Potency": "inconclusive [inhibitor, partial curve]"}, {"smiles": "CNC(=O)C1CCC(Cn2c(=O)c3sccc3n(Cc3ccc(F)cc3)c2=O)CC1", "note": "(stereo not drawn)", "Potency": "active: 8.2 µM"}, {"smiles": "CC(=O)c1cccc(CN2CCC(C(=O)Nc3ccc(Oc4cccnc4)cc3)CC2)c1", "Potency": "inconclusive [inhibitor, single point]"}, {"smiles": "COC(=O)CCN(C1CCCCC1)S(=O)(=O)c1ccc(S(=O)(=O)N2CCCCC2)cc1", "Potency": "active: 29.1 µM"}, {"smiles": "CC(Sc1nnc(NC2CCCCC2)s1)C(=O)Nc1ccc2c(c1)C(=O)c1ccccc1C2=O", "note": "(stereo not drawn)", "Potency": "inconclusive [inhibitor, single point]"}, {"smiles": "CCCSc1nnc(CSc2nc3ccccc3s2)n1-c1ccccc1", "Potency": "inconclusive [inhibitor, single point]"}, {"smiles": "Cc1ccc2nc(N3CCN(Cc4nnnn4C4CCCC4)CC3)c(C#N)cc2c1", "Potency": "inconclusive [inhibitor, single point]"}, {"smiles": "O=C(CC1(O)C(=O)Nc2cc(Cl)cc(Cl)c21)c1ccccc1O", "note": "(stereo not drawn)", "Potency": "inconclusive [inhibitor, single point]"}, {"smiles": "O=C(NCCc1ccccc1)c1coc(=O)c(Br)c1", "Potency": "active: 0.82 µM"}, {"smiles": "COc1cc(CNc2ccc(N3CCOCC3)cc2)ccc1OCC(=O)NC(C)(C)C", "Potency": "inconclusive [inhibitor, single point]"}, {"smiles": "O=C(CCN1C(=O)COc2ccccc21)NCCCN1CCc2ccccc2C1", "activity change, negative = growth inhibition": "inactive: 1.53%"}, {"smiles": "O=C(C[n+]1ccc(/C=N/O)cc1)N1CCCCC1", "activity change, negative = growth inhibition": "inactive: -0.921%"}, {"smiles": "COc1ccccc1-c1cncnc1NCc1cccc(C)c1", "Potency": "inconclusive [inhibitor, single point]"}, {"smiles": "O=C(O)c1cccc(-n2sc3ccccc3c2=O)c1", "Potency": "inconclusive [inhibitor, single point]"}, {"smiles": "Cc1ccc(CN2C(=O)CCC2C(=O)N2CCN(c3ccccc3)CC2)cc1", "note": "(stereo not drawn)", "Potency": "inconclusive [inhibitor, single point]"}, {"smiles": "COc1ccc(/C=C/C(=O)OCC(=O)NCCCc2ccccc2)cc1OC", "Potency": "inconclusive [inhibitor, single point]"}, {"smiles": "CCn1c(C(=O)NCc2ccccc2C)cc2oc3ccccc3c21", "activity change, negative = growth inhibition": "inactive: 1.9%"}, {"smiles": "COC(=O)c1ccccc1NC(=O)c1ncoc1-c1ccco1", "Potency": "active: 13 µM"}, {"smiles": "CCCc1cc(=O)oc2c3c(ccc12)OCN(Cc1ccc(OC)cc1)C3", "Potency": "inconclusive [inhibitor, single point]"}, {"smiles": "C=CCc1ccc(OCCN2CCc3ccccc3C2)c(OC)c1", "Potency": "inconclusive [inhibitor, single point]"}, {"smiles": "CCCCC1Cc2[nH][nH]c(=O)c2C(c2ccc(F)cc2)O1", "note": "(stereo not drawn)", "Potency": "inconclusive [inhibitor, single point]"}, {"smiles": "CCCCn1c(N)c(N(CCOC)C(=O)COC(=O)COc2c(C)cc(C)cc2C)c(=O)[nH]c1=O", "activity change, negative = growth inhibition": "inactive: 2.37%"}, {"smiles": "COc1ccccc1OCCC(=O)OCC(=O)Nc1cc(S(=O)(=O)N(C)C)ccc1Cl", "Potency": "inconclusive [inhibitor, single point]"}, {"smiles": "CC(=O)c1ccc(NC(=O)CSC(C)C)cc1", "Potency": "inconclusive [inhibitor, single point]"}, {"smiles": "C[C@H](NC(=O)[C@@H]1CCCN1C(=O)[C@@H]1CCCN1C(=O)c1ccccc1)c1ccccc1", "Potency": "inconclusive [inhibitor, single point]"}, {"smiles": "Fc1cc2[nH]c(=S)[nH]c2cc1Cl", "activity change, negative = growth inhibition": "inactive: 5.28%"}, {"smiles": "CCN(c1ccccc1)S(=O)(=O)c1cccc(C(=O)Nc2ccc(C)cn2)c1", "Potency": "inconclusive [inhibitor, single point]"}, {"smiles": "Cc1ccccc1OCCSc1nc2ccc(NC(=O)c3ccccc3)cc2s1", "activity change, negative = growth inhibition": "inactive: -70.4%"}, {"smiles": "Cc1nc(-c2cccc(NC(=O)Nc3ccc([N+](=O)[O-])cc3)c2)no1", "Potency": "active: 5.17 µM"}, {"smiles": "Cc1cc(-c2nnc(SCC(=O)c3ccc4c(c3)OCCO4)o2)no1", "activity change, negative = growth inhibition": "inactive: 7.15%"}, {"smiles": "O=C(NCc1cccs1)C1CCN(S(=O)(=O)c2cccc3cccnc23)CC1", "activity change, negative = growth inhibition": "inactive: -8.15%"}, {"smiles": "COC(=O)CSc1nc(-c2ccc(C)cc2)c2c(c1C#N)CCCC2", "activity change, negative = growth inhibition": "inactive: -19%"}, {"smiles": "CCCN1C(=O)c2[nH]nc(-c3ccccc3O)c2C1c1ccc(OCc2ccccc2)c(OC)c1", "note": "(stereo not drawn)", "Potency": "active: 16.4 µM"}, {"smiles": "COc1cc2nc(COc3ccc(C#N)cc3)n(CC#N)c(=O)c2cc1OC", "Potency": "inconclusive [inhibitor, single point]"}, {"smiles": "COc1ccc(CCNC(=O)c2cc(-c3cc(C)ccc3O)n[nH]2)cc1OC", "Potency": "inconclusive [inhibitor, single point]"}, {"smiles": "CN1N=C(C(C)(C)C)CSC1=Nc1ccc(F)cc1", "activity change, negative = growth inhibition": "inactive: -15.9%"}, {"smiles": "O=C(Nc1cccc(NC(=O)c2cccs2)c1)c1ccc2c(c1)OCO2", "activity change, negative = growth inhibition": "inconclusive: -34.5% [inhibitor]"}, {"smiles": "CC1(C)Cc2ccccc2C(N/N=C/c2ccc(Cl)cc2)=N1", "Potency": "inconclusive [inhibitor, single point]"}, {"smiles": "CS(=O)(=O)c1ccc2nc(NC(=O)CCC(=O)c3cccs3)sc2c1", "activity change, negative = growth inhibition": "inconclusive: -32.6% [inhibitor]"}, {"smiles": "CC(C)c1nc(N2CCN(C(=O)c3ccco3)CC2)c(C#N)c2c1COC(C)(C)C2", "Potency": "active: 14.6 µM"}, {"smiles": "CCNc1ncc2ncc(=O)n(Cc3cccc(OC)c3)c2n1", "Potency": "inconclusive [inhibitor, single point]"}, {"smiles": "Cc1cc(/C=N/n2cnnc2)c(O)c([N+](=O)[O-])c1", "activity change, negative = growth inhibition": "inactive: -1.24%"}, {"smiles": "COc1cc(C(=O)N2CCN(c3ccc(Nc4ccc(C)cc4)nn3)CC2)cc(OC)c1OC", "Potency": "inconclusive [inhibitor, single point]"}, {"smiles": "Cc1cccc(N2CCN(S(=O)(=O)c3c(C)noc3/C=C/N(C)C)CC2)c1C", "Potency": "inconclusive [inhibitor, single point]"}, {"smiles": "CCOc1ccc(Oc2c(/C=N/NC(=O)COc3ccccc3OC)c(C)nn2-c2ccccc2)cc1", "Potency": "inconclusive [inhibitor, single point]"}, {"smiles": "COc1ccc(NC(=S)NCCc2c[nH]c3ccccc23)c(OC)c1", "Potency": "inconclusive [inhibitor, single point]"}, {"smiles": "CCN(CC)CCCNC(=O)c1cn(CC)c2ccc(S(=O)(=O)N(C)C3CCCCC3)cc2c1=O", "activity change, negative = growth inhibition": "inactive: -1%"}]}]}
